Measured values published in patent publication US11618753B2 (priority 2018, dated 2023).

System: MLKL phosphorylation, HT29-L23 human colorectal adenocarcinoma cells
Test: not given
Details: read-out: pMLKL HCS Cell Assay (IC50)

Q: How did the IC50 turn out when `COc1ncc(-c2cc(C(F)(F)F)c3c(N)ncnn23)cc1C(=O)NCCC(O)(c1ccccc1)C(F)(F)F` (single isomer, unassigned) [Example 141, 5-[4-amino-5-(trifluoromethyl)pyrrolo[2,1-f][1,2,4]triazin-7-yl]-2-methoxy-N-(4,4,4-trifluoro-3-hydroxy-3-phenylbutyl)pyridine-3-carboxamide] was run?
A: 208 nM

Q: Which IC50 does the source give for `COc1ncc(-c2cc(C(F)(F)F)c3c(N)ncnn23)cc1C(=O)NCCC(O)(c1ccccc1)C(F)(F)F` (single isomer, unassigned) [Example 142, 5-[4-amino-5-(trifluoromethyl)pyrrolo[2,1-f][1,2,4]triazin-7-yl]-2-methoxy-N-(4,4,4-trifluoro-3-hydroxy-3-phenylbutyl)pyridine-3-carboxamide] here?
A: 70 nM

Q: Which IC50 does the source give for `COc1ncc(-c2cc(C(F)(F)F)c3c(N)ncnn23)cc1C(=O)N[C@@H]1CN(C(C)c2ccccc2)C[C@@H]1F` (single isomer, unassigned) [Example 433] here?
A: 3.7 nM

Q: `COc1ncc(-c2cc(C(F)(F)F)c3c(N)ncnn23)cc1C(=O)N[C@@H]1CN(C(C)c2cccc(C#N)c2)C[C@@H]1F` (single isomer, unassigned) [Example 434] was tested. Which IC50 did it give?
A: 24 nM

Q: For `COc1ncc(-c2cc(C(F)(F)F)c3c(N)ncnn23)cc1C(=O)N[C@@H]1CN(C(C)c2cccc(C#N)c2)C[C@@H]1F` (single isomer, unassigned) [Example 435], which IC50 is on record?
A: 6 nM

Q: Which IC50 does the source give for `COc1ncc(-c2cc(C(F)(F)F)c3c(N)ncnn23)cc1C(=O)N[C@@H]1CN(C(C)c2ccncc2)C[C@@H]1F` (single isomer, unassigned) [Example 438] here?
A: 2.1 nM

Q: For `COc1ncc(-c2cc(C(F)(F)F)c3c(N)ncnn23)cc1C(=O)N[C@@H]1CN(C(C)c2ccncc2)C[C@@H]1F` (single isomer, unassigned) [Example 439], which IC50 is on record?
A: 11 nM

Q: How did the IC50 turn out when `COc1ncc(-c2cc(C(F)(F)F)c3c(N)ncnn23)cc1C(=O)N[C@@H]1CN(C(C)c2cncs2)C[C@@H]1F` (single isomer, unassigned) [Example 444] was run?
A: 28 nM

Q: Which IC50 does the source give for `COc1ncc(-c2cc(C(F)(F)F)c3c(N)ncnn23)cc1C(=O)N[C@@H]1CN(C(C)c2cncs2)C[C@@H]1F` (single isomer, unassigned) [Example 445] here?
A: 0.83 nM

System: MLKL phosphorylation, HT29-L23 human colorectal adenocarcinoma cells
Test: cells
Details: read-out: pMLKL HCS Cell Assay (IC50, uM)

Q: Which IC50 does the source give for `COc1ncc(-c2cc(C(F)(F)F)c3c(N)ncnn23)cc1C(=O)N[C@@H]1CN(CC(O)(c2ccccc2)C(F)(F)F)C[C@@H]1F` (stereo partly drawn) [Example 1824, 5-(4-amino-5-(trifluoromethyl)pyrrolo[2,1-f][1,2,4]triazin-7-yl)-N-((3R,4S)-4-fluoro-1-(3,3,3-trifluoro-2-hydroxy-2-phenylpropyl)pyrrolidin-3-yl)-2-methoxynicotinamide] here?
A: 0.014 µM

Q: With `COc1ncc(-c2cc(C(F)(F)F)c3c(N)ncnn23)cc1C(=O)N[C@@H]1CN(CC(O)(C2CC2)C(F)(F)F)C[C@@H]1F` (stereo partly drawn) [Example 1825, 5-(4-amino-5-(trifluoromethyl)pyrrolo[2,1-f][1,2,4]triazin-7-yl)-N-((3R,4S)-1-(2-cyclopropyl-3,3,3-trifluoro-2-hydroxypropyl)-4-fluoropyrrolidin-3-yl)-2-methoxynicotinamide] as the compound, how does the IC50 read?
A: 0.0033 µM

Q: How did the IC50 turn out when `COc1ncc(-c2cc(C(F)(F)F)c3c(N)ncnn23)cc1C(=O)NC1CN(CC(O)(C2CC2)C(F)(F)F)C[C@@H]1F` (stereo partly drawn) [Example 1826, 5-(4-amino-5-(trifluoromethyl)pyrrolo[2,1-f][1,2,4]triazin-7-yl)-N-((3R,4S)-1-(2-cyclopropyl-3,3,3-trifluoro-2-hydroxypropyl)-4-fluoropyrrolidin-3-yl)-2-methoxynicotinamide] was run?
A: 0.0077 µM

Q: For `COc1ncc(-c2cc(C(F)(F)F)c3c(N)ncnn23)cc1C(=O)N[C@@H]1CN(CC(O)(c2nccs2)C(F)(F)F)C[C@@H]1F` (stereo partly drawn) [Example 1828, 5-(4-amino-5-(trifluoromethyl)pyrrolo[2,1-f][1,2,4]triazin-7-yl)-N-((3R,4S)-4-fluoro-1-(3,3,3-trifluoro-2-hydroxy-2-(thiazol-2-yl)propyl)pyrrolidin-3-yl)-2-methoxynicotinamide], which IC50 is on record?
A: 0.027 µM

Q: With `COc1ncc(-c2cc(C(F)(F)F)c3c(N)ncnn23)cc1C(=O)N[C@@H]1CN(CC(O)(C(F)(F)F)C(F)(F)F)C[C@@H]1F` [Example 1829, 5-(4-amino-5-(trifluoromethyl)pyrrolo[2,1-f][1,2,4]triazin-7-yl)-N-((3R,4S)-4-fluoro-1-(3,3,3-trifluoro-2-hydroxy-2-(trifluoromethyl)propyl)pyrrolidin-3-yl)-2-methoxynicotinamide] as the compound, how does the IC50 read?
A: 0.0094 µM

Q: For `COc1ncc(-c2cc(C(F)(F)F)c3c(N)ncnn23)cc1C(=O)N[C@@H]1CN(CC(O)CF)C[C@@H]1F` (stereo partly drawn) [Example 1830, 5-(4-amino-5-(trifluoromethyl)pyrrolo[2,1-f][1,2,4]triazin-7-yl)-N-((3R,4S)-4-fluoro-1-(3-fluoro-2-hydroxypropyl)pyrrolidin-3-yl)-2-methoxynicotinamide], which IC50 is on record?
A: 0.234 µM

Q: `COc1ncc(-c2cc(C(F)(F)F)c3c(N)ncnn23)cc1C(=O)N[C@@H]1CN(CC(O)COC(F)(F)C(F)F)C[C@@H]1F` (stereo partly drawn) [Example 1832, 5-(4-amino-5-(trifluoromethyl)pyrrolo[2,1-f][1,2,4]triazin-7-yl)-N-((3R,4S)-4-fluoro-1-(2-hydroxy-3-(1,1,2,2-tetrafluoroethoxy)propyl)pyrrolidin-3-yl)-2-methoxynicotinamide] was tested. Which IC50 did it give?
A: 0.172 µM

Q: For `COc1ncc(-c2cc(C(F)(F)F)c3c(N)ncnn23)cc1C(=O)NC1CN(C(=O)C(O)(C(F)(F)F)C(F)(F)F)CC1(F)F` (stereo not shown) [Example 1835, 5-(4-amino-5-(trifluoromethyl)pyrrolo[2,1-f][1,2,4]triazin-7-yl)-N-(4,4-difluoro-1-(3,3,3-trifluoro-2-hydroxy-2-(trifluoromethyl)propanoyl)pyrrolidin-3-yl)-2-methoxynicotinamide], which IC50 is on record?
A: 0.11 µM

Q: With `[2H]C([2H])([2H])Oc1ncc(-c2ccc3c(N)ncnn23)cc1C(=O)N[C@@H]1CN(C(=O)[C@@](C)(O)C(F)(F)F)C[C@@H]1F` [Example 1836, 5-(4-aminopyrrolo[2,1-f][1,2,4]triazin-7-yl)-N-((3R,4S)-4-fluoro-1-((R)-3,3,3-trifluoro-2-hydroxy-2-methylpropanoyl)pyrrolidin-3-yl)-2-(methoxy-d3)nicotinamide] as the compound, how does the IC50 read?
A: 0.0091 µM

Q: Which IC50 does the source give for `COc1ncc(-c2cc(C(F)(F)F)c3c(N)ncnn23)cc1C(=O)N[C@@H]1CN(C(=O)NC2CCCC2)C[C@@H]1F` [Example 1837, 5-(4-amino-5-(trifluoromethyl)pyrrolo[2,1-f][1,2,4]triazin-7-yl)-N-((3R,4S)-1-(cyclopentylcarbamoyl)-4-fluoropyrrolidin-3-yl)-2-methoxynicotinamide] here?
A: 0.13 µM

Q: `COc1ncc(-c2cc(C(F)(F)F)c3c(N)ncnn23)cc1C(=O)N[C@@H]1CN(C(=O)NC(C)(C)C)C[C@@H]1F` [Example 1838, 5-(4-amino-5-(trifluoromethyl)pyrrolo[2,1-f][1,2,4]triazin-7-yl)-N-((3R,4S)-1-(tert-butylcarbamoyl)-4-fluoropyrrolidin-3-yl)-2-methoxynicotinamide] was tested. Which IC50 did it give?
A: 0.105 µM

Q: With `CCCCCNC(=O)N1C[C@H](F)[C@H](NC(=O)c2cc(-c3cc(C(F)(F)F)c4c(N)ncnn34)cnc2OC)C1` [Example 1839, 5-(4-amino-5-(trifluoromethyl)pyrrolo[2,1-f][1,2,4]triazin-7-yl)-N-((3R,4S)-4-fluoro-1-(pentylcarbamoyl)pyrrolidin-3-yl)-2-methoxynicotinamide] as the compound, how does the IC50 read?
A: 0.288 µM

Q: How did the IC50 turn out when `COc1ncc(-c2cc(C(F)(F)F)c3c(N)ncnn23)cc1C(=O)N[C@@H]1CN(C(=O)NC(C)C)C[C@@H]1F` [Example 1840, 5-(4-amino-5-(trifluoromethyl)pyrrolo[2,1-f][1,2,4]triazin-7-yl)-N-((3R,4S)-4-fluoro-1-(isopropylcarbamoyl)pyrrolidin-3-yl)-2-methoxynicotinamide] was run?
A: 0.296 µM

Q: How did the IC50 turn out when `COc1ncc(-c2cc(C(F)(F)F)c3c(N)ncnn23)cc1C(=O)N[C@@H]1CN(C(=O)N2CCC(F)(F)C2)C[C@@H]1F` [Example 1841, 5-(4-amino-5-(trifluoromethyl)pyrrolo[2,1-f][1,2,4]triazin-7-yl)-N-((3R,4S)-1-(3,3-difluoropyrrolidine-1-carbonyl)-4-fluoropyrrolidin-3-yl)-2-methoxynicotinamide] was run?
A: 0.086 µM

Q: `COc1ncc(-c2cc(C(F)(F)F)c3c(N)ncnn23)cc1C(=O)N[C@@H]1CN(C(=O)NCC(F)(F)F)C[C@@H]1F` [Example 1843, 5-(4-amino-5-(trifluoromethyl)pyrrolo[2,1-f][1,2,4]triazin-7-yl)-N-((3R,4S)-4-fluoro-1-((2,2,2-trifluoroethyl)carbamoyl)pyrrolidin-3-yl)-2-methoxynicotinamide] was tested. Which IC50 did it give?
A: 0.076 µM

Q: With `COc1ncc(-c2cc(C(F)(F)F)c3c(N)ncnn23)cc1C(=O)N[C@@H]1CN(C(=O)N2CCCCC2)C[C@@H]1F` [Example 1844, 5-(4-amino-5-(trifluoromethyl)pyrrolo[2,1-f][1,2,4]triazin-7-yl)-N-((3R,4S)-4-fluoro-1-(piperidine-1-carbonyl)pyrrolidin-3-yl)-2-methoxynicotinamide] as the compound, how does the IC50 read?
A: 0.12 µM

Q: For `CCN(C)C(=O)N1C[C@H](F)[C@H](NC(=O)c2cc(-c3cc(C(F)(F)F)c4c(N)ncnn34)cnc2OC)C1` [Example 1845, 5-(4-amino-5-(trifluoromethyl)pyrrolo[2,1-f][1,2,4]triazin-7-yl)-N-((3R,4S)-1-(ethyl(methyl)carbamoyl)-4-fluoropyrrolidin-3-yl)-2-methoxynicotinamide], which IC50 is on record?
A: 0.126 µM

Q: With `COc1ncc(-c2cc(C(F)(F)F)c3c(N)ncnn23)cc1C(=O)Nc1cc(Cl)n(Cc2ccccc2)n1` [Example 1847, 5-(4-amino-5-(trifluoromethyl)pyrrolo[2,1-f][1,2,4]triazin-7-yl)-N-(1-benzyl-5-chloro-1H-pyrazol-3-yl)-2-methoxynicotinamide] as the compound, how does the IC50 read?
A: 0.029 µM

Q: With `[2H]C([2H])([2H])Oc1ncc(-c2cc(CN3CC(F)(F)C3)c3c(N)ncnn23)cc1C(=O)N[C@@H]1CN(C(=O)C(C)C)C[C@@H]1F` [Example 1848, 5-(4-amino-5-((3,3-difluoroazetidin-1-yl)methyl)pyrrolo[2,1-f][1,2,4]triazin-7-yl)-N-((3R,4S)-4-fluoro-1-isobutyrylpyrrolidin-3-yl)-2-(methoxy-d3)nicotinamide] as the compound, how does the IC50 read?
A: 0.00054 µM
